Some of the results follow.
Key:
Experiment in all cases: glycan array binding signal (z-score within array); higher = stronger binding
Details in all cases: glycan notation: IUPAC condensed, linker removed
[1] = target: GlcNAc(b1-3)Gal(b1-4)GlcNAc(b1-3)Gal(b1-4)GlcNAc(b1-2)Man(a1-3)[GlcNAc(b1-3)Gal(b1-4)GlcNAc(b1-3)Gal(b1-4)GlcNAc(b1-2)Man(a1-6)]Man(b1-4)GlcNAc(b1-4)[Fuc(a1-6)]GlcNAc
Method in brief: (§1)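 Columns mapping to the same glycan were averaged after glycan names were converted to IUPAC-condensed notation. The data come from 3228 arrays in the Consortium for Functional Glycomics database, limited to those with an available protein sequence. Binding is reported as a within-array Z-score averaged across arrays of one protein sequence and across linkers.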

[2] = target: GlcNAc(b1-3)Gal(b1-4)GlcNAc(b1-3)Gal(b1-4)GlcNAc(b1-2)[GlcNAc(b1-3)Gal(b1-4)GlcNAc(b1-3)Gal(b1-4)GlcNAc(b1-6)]Man(a1-6)[GlcNAc(b1-3)Gal(b1-4)GlcNAc(b1-3)Gal(b1-4)GlcNAc(b1-2)Man(a1-3)]Man(b1-4)GlcNAc(b1-4)[Fuc(a1-6)]GlcNAc
Method in brief: as §1

[3] = target: GlcNAc(b1-3)Gal(b1-4)GlcNAc(b1-3)Gal(b1-4)GlcNAc(b1-3)Gal(b1-4)GlcNAc(b1-2)Man(a1-3)[GlcNAc(b1-3)Gal(b1-4)GlcNAc(b1-3)Gal(b1-4)GlcNAc(b1-3)Gal(b1-4)GlcNAc(b1-2)Man(a1-6)]Man(b1-4)GlcNAc(b1-4)GlcNAc
Method in brief: as §1

[4] = target: GlcNAc(b1-3)Gal(b1-4)GlcNAc(b1-3)Gal(b1-4)GlcNAc(b1-3)Gal(b1-4)GlcNAc(b1-2)Man(a1-3)[GlcNAc(b1-3)Gal(b1-4)GlcNAc(b1-3)Gal(b1-4)GlcNAc(b1-3)Gal(b1-4)GlcNAc(b1-2)Man(a1-6)]Man(b1-4)GlcNAc(b1-4)[Fuc(a1-6)]GlcNAc
Method in brief: as §1

[5] = target: GlcNAc(b1-3)Gal(b1-4)GlcNAc(b1-3)Gal(b1-4)GlcNAc(b1-3)Gal(b1-4)GlcNAc(b1-2)[GlcNAc(b1-3)Gal(b1-4)GlcNAc(b1-3)Gal(b1-4)GlcNAc(b1-3)Gal(b1-4)GlcNAc(b1-6)]Man(a1-6)[GlcNAc(b1-3)Gal(b1-4)GlcNAc(b1-3)Gal(b1-4)GlcNAc(b1-3)Gal(b1-4)GlcNAc(b1-2)Man(a1-3)]Man(b1-4)GlcNAc(b1-4)[Fuc(a1-6)]GlcNAc
Method in brief: as §1

[6] = target: GlcNAc(b1-3)Gal(b1-4)GlcNAc(b1-3)Gal(b1-4)GlcNAc(b1-3)Gal(b1-4)GlcNAc(b1-3)Gal(b1-4)GlcNAc(b1-2)Man(a1-3)[GlcNAc(b1-3)Gal(b1-4)GlcNAc(b1-3)Gal(b1-4)GlcNAc(b1-3)Gal(b1-4)GlcNAc(b1-3)Gal(b1-4)GlcNAc(b1-2)Man(a1-6)]Man(b1-4)GlcNAc(b1-4)GlcNAc
Method in brief: as §1

[7] = target: GlcNAc(b1-3)Gal(b1-4)GlcNAc(b1-3)Gal(b1-4)GlcNAc(b1-3)Gal(b1-4)GlcNAc(b1-3)Gal(b1-4)GlcNAc(b1-2)Man(a1-3)[GlcNAc(b1-3)Gal(b1-4)GlcNAc(b1-3)Gal(b1-4)GlcNAc(b1-3)Gal(b1-4)GlcNAc(b1-3)Gal(b1-4)GlcNAc(b1-2)Man(a1-6)]Man(b1-4)GlcNAc(b1-4)[Fuc(a1-6)]GlcNAc
Method in brief: as §1

[8] = target: GlcNAc(b1-3)Gal(b1-4)GlcNAc(b1-3)Gal(b1-4)GlcNAc(b1-3)Gal(b1-4)GlcNAc(b1-3)Gal(b1-4)GlcNAc(b1-2)[GlcNAc(b1-3)Gal(b1-4)GlcNAc(b1-3)Gal(b1-4)GlcNAc(b1-3)Gal(b1-4)GlcNAc(b1-3)Gal(b1-4)GlcNAc(b1-6)]Man(a1-6)[GlcNAc(b1-3)Gal(b1-4)GlcNAc(b1-3)Gal(b1-4)GlcNAc(b1-3)Gal(b1-4)GlcNAc(b1-3)Gal(b1-4)GlcNAc(b1-2)Man(a1-3)]Man(b1-4)GlcNAc(b1-4)[Fuc(a1-6)]GlcNAc
Method in brief: as §1

[9] = target: GlcNAc(b1-3)Gal(b1-4)GlcNAc(b1-3)Gal(b1-4)GlcNAc(b1-3)GalNAc
Method in brief: as §1

[10] = target: GlcNAc(b1-3)Gal(b1-4)GlcNAc(b1-3)GalNAc
Method in brief: as §1

[11] = target: GlcNAc(b1-3)Gal(b1-4)GlcNAc(b1-3)[GlcNAc(b1-3)Gal(b1-4)GlcNAc(b1-3)]GalNAc
Method in brief: as §1

[12] = target: GlcNAc(b1-3)Gal(b1-4)GlcNAc(b1-6)[Gal(b1-3)]GalNAc
Method in brief: as §1

[13] = target: GlcNAc(b1-3)Gal(b1-4)GlcNAc(b1-6)[GlcNAc(b1-3)Gal(b1-3)]GalNAc
Method in brief: as §1

[14] = target: GlcNAc(b1-3)Gal(b1-4)GlcNAc(b1-6)[GlcNAc(b1-3)]Gal(b1-4)GlcNAc
Method in brief: as §1

GlcNAc(b1-3)GalNAc = target: GlcNAc(b1-3)GalNAc
Method in brief: as §1

GlcNAc(b1-3)Man = target: GlcNAc(b1-3)Man
Method in brief: as §1

[15] = target: GlcNAc(b1-3)[GlcNAc(b1-4)][GlcNAc(b1-6)]GlcNAc
Method in brief: as §1

[16] = target: GlcNAc(b1-3)[GlcNAc(b1-6)]Gal(b1-4)GlcNAc
Method in brief: as §1

[17] = target: GlcNAc(b1-3)[GlcNAc(b1-6)]GalNAc
Method in brief: as §1

[18] = target: GlcNAc(b1-4)Gal(b1-4)GlcNAc
Method in brief: as §1

GlcNAc(b1-4)GlcNAc = target: GlcNAc(b1-4)GlcNAc
Method in brief: as §1

[19] = target: GlcNAc(b1-4)GlcNAc(b1-4)GlcNAc
Method in brief: as §1

[20] = target: GlcNAc(b1-4)GlcNAc(b1-4)GlcNAc(b1-4)GlcNAc(b1-4)GlcNAc
Method in brief: as §1

[21] = target: GlcNAc(b1-4)GlcNAc(b1-4)GlcNAc(b1-4)GlcNAc(b1-4)GlcNAc(b1-4)GlcNAc
Method in brief: as §1

[22] = target: GlcNAc(b1-4)[GlcNAc(b1-6)]GalNAc
Method in brief: as §1

[23] = target: GlcNAc(b1-6)Gal(b1-4)GlcNAc
Method in brief: as §1

GlcNAc(b1-6)GalNAc = target: GlcNAc(b1-6)GalNAc
Method in brief: as §1

[24] = target: GlcNAc6S(b1-3)Gal(b1-4)GlcNAc
Method in brief: as §1

Kdn(a2-3)Gal(b1-3)GalNAc = target: Kdn(a2-3)Gal(b1-3)GalNAc
Method in brief: as §1

Kdn(a2-3)Gal(b1-3)GlcNAc = target: Kdn(a2-3)Gal(b1-3)GlcNAc
Method in brief: as §1

Kdn(a2-3)Gal(b1-4)Glc = target: Kdn(a2-3)Gal(b1-4)Glc
Method in brief: as §1

Kdn(a2-3)Gal(b1-4)GlcNAc = target: Kdn(a2-3)Gal(b1-4)GlcNAc
Method in brief: as §1

[25] = target: Kdn(a2-3)Gal(b1-4)[Fuc(a1-3)]GlcNAc
Method in brief: as §1

Kdn(a2-6)Gal(b1-4)GlcNAc = target: Kdn(a2-6)Gal(b1-4)GlcNAc
Method in brief: as §1

[26] = target: Man(a1-2)Man(a1-2)Man(a1-3)Man
Method in brief: as §1

[27] = target: Man(a1-2)Man(a1-2)Man(a1-6)[Man(a1-3)]Man
Method in brief: as §1

Man(a1-2)Man(a1-3)Man = target: Man(a1-2)Man(a1-3)Man
Method in brief: as §1

[28] = target: Man(a1-2)Man(a1-3)[Man(a1-2)Man(a1-6)]Man
Method in brief: as §1

B1: Cohesin-hLangerin (Homo sapiens) (protein)
chain: LDDLDAVRIKVDTVNAKPGDTVRIPVRFSGIPSKGIANCDFVYSYDPNVLEIIEIEPGDIIVDPNPDKSFDTAVYPDRKIIVFLFAEDSGTGAYAITKDGVFATIVAKVKEGAPNGLSVIKFVEVGGFANNDLVEQKTQFFDGGANVGDTTEPATPTTPVTTPTTTDDLDAASYPRFMGTISDVKTNVQLLKGRVDNISTLDSEIKKNSDGMEAAGVQIQMVNESLGYVRSQFLKLKTSVEKANAQIQILTRSWEEVSTLNAQIPELKSDLEKASALNTKIRALQGSLENMSKLLKRQNDILQVVSQGWKYFKGNFYYFSLIPKTWYSAEQFCVSRNSHLTSVTSESEQEFLYKTAGGLIYWIGLTKAGMEGDWSWVDDTPFNKVQSARFWIPGEPNNAGNNEHCGNIKAPSLQAWNDAPCDKTFLFICKRPYVPSEPHHHHHH
- glycan array binding signal (z-score) [1]: 1.87
- glycan array binding signal (z-score) [2]: 4.94
- glycan array binding signal (z-score) [3]: -0.124
- glycan array binding signal (z-score) [4]: 2.43
- glycan array binding signal (z-score) [5]: 0.079
- glycan array binding signal (z-score) [6]: 0.534
- glycan array binding signal (z-score) [7]: 1.99
- glycan array binding signal (z-score) [8]: 0.101
- glycan array binding signal (z-score) [9]: -0.41
- glycan array binding signal (z-score) [10]: -0.255
- glycan array binding signal (z-score) [11]: -0.267
- glycan array binding signal (z-score) [12]: -0.317
- glycan array binding signal (z-score) [13]: 1.34
- glycan array binding signal (z-score) [14]: 0.339
- glycan array binding signal (z-score) (GlcNAc(b1-3)GalNAc): -0.39
- glycan array binding signal (z-score) (GlcNAc(b1-3)Man): 0.012
- glycan array binding signal (z-score) [15]: -0.445
- glycan array binding signal (z-score) [16]: 0.009
- glycan array binding signal (z-score) [17]: -0.334
- glycan array binding signal (z-score) [18]: -0.254
- glycan array binding signal (z-score) (GlcNAc(b1-4)GlcNAc): -0.193
- glycan array binding signal (z-score) [19]: -0.362
- glycan array binding signal (z-score) [20]: -0.242
- glycan array binding signal (z-score) [21]: -0.396
- glycan array binding signal (z-score) [22]: -0.419
- glycan array binding signal (z-score) [23]: -0.258
- glycan array binding signal (z-score) (GlcNAc(b1-6)GalNAc): -0.105
- glycan array binding signal (z-score) [24]: 0.664
- glycan array binding signal (z-score) (Kdn(a2-3)Gal(b1-3)GalNAc): -0.137
- glycan array binding signal (z-score) (Kdn(a2-3)Gal(b1-3)GlcNAc): -0.413
- glycan array binding signal (z-score) (Kdn(a2-3)Gal(b1-4)Glc): -0.351
- glycan array binding signal (z-score) (Kdn(a2-3)Gal(b1-4)GlcNAc): -0.423
- glycan array binding signal (z-score) [25]: -0.373
- glycan array binding signal (z-score) (Kdn(a2-6)Gal(b1-4)GlcNAc): -0.222
- glycan array binding signal (z-score) [26]: -0.313
- glycan array binding signal (z-score) [27]: 5.38
- glycan array binding signal (z-score) (Man(a1-2)Man(a1-3)Man): -0.28
- glycan array binding signal (z-score) [28]: -0.385
